Columns and labels:
[1] = tested on: human T-cells with AEPO target cells; assay: T-cell activation (CD69) in co-culture with AEPO; assay type: cell-based; settings: up to 1 nM, 69 hours
Experimental: The HCT-116, AEKO and AEPO cell lines described above were used as target cells in a TDCC co-culture assay with Ab1070 (FIG. 35). […] EpCAM structure-activity relationship (SAR) campaign
Co-culture assays were used to assess T-cell activation (CD69 upregulation), cytokine production or T-cell-dependent cellular cytotoxicity (TDCC) of target cells. Flat-bottom 96-well plates were seeded with 5,000 target cells in complete growth media (DMEM+10% FBS+1% penicillin/streptomycin) 16-24 hrs before the assay. Antibody drugs were added in 10 μL growth media and incubated for at least 10 min at 37° C. Indinavir or vehicle control was added in 10 μL growth media. […] While T cells were being processed, target cells were incubated with CellTiter-Glo 2.0 (Promega, Madison, WI) for 15 min at room temperature with shaking then read for luciferase light emission on a GloMax Explorer plate reader using default settings. Specific Cytotoxicity (%) was calculated from the relative luminescence unit values (RLU) using the formula: [1−(experimental RLU/vehicle-treated RLU))×100]. The frequency of CD69+ T-cells (%) was calculated as the percentage of CD69-positive events within the CF405M-negative population. Dose-response curves and EC50 values were calculated in GraphPad Prism 9 software (GraphPad Software San Diego, CA).

CEPO-HB2 target cells = assay: TDCC co-culture assay, CEPO-HB2 (high EpCAM); assay type: cell-based, human
Excerpt: (§1) FIG. 48 depicts co-culture TDCC data for an exemplary T-LITE pair and a conventional TCE on isogenic cell lines with different surface expression of human EpCAM. A panel of isogenic cell lines was created using the Calu-6 human lung cancer cell line as a starting point. Based on literature values for surface expression of EpCAM, Calu-6 expresses 40,926 copies/cell, whereas HCT-116 expresses approximately 100-fold higher levels at 4,753,190 copies/cell (Casaletto et al., PNAS 2019; doi: 10.1073/pnas.1819085116). Human EpCAM was expressed on the Calu-6 background using lentiviral vectors with different strength promoters. […] Relative surface expression of human EpCAM on each cell line was measured by flow cytometry, as well as parental Calu-6 cells and HCT-116 as controls. The conventional TCE control Ab1070 and a T-LITE pair (Ab1093+Ab1060) were assessed in a co-culture assay measuring TDCC of either CEPO-HB2 or CEPO-L2A2 target cells, representing high and low expression of EpCAM, respectively. The assay was performed with 10 nM antibodies (or titrated as indicated), 100 nM indinavir or DMSO vehicle, human T-cells and a variety target cells (as indicated) for 67 hours. Flow cytometry was performed using a PE-conjugated fluorescent anti-human EpCAM antibody (clone 9C4). […]

CEPO-L2A2 target cells = assay: TDCC co-culture assay, CEPO-L2A2 (low EpCAM); assay type: cell-based, human; settings: up to 10 nM, 67 hours
Excerpt: as §1

window between the EC50 for the high- and low-expressing lines (CEPO-HB2 target cells; CEPO-HB2 vs CEPO-L2A2): 47 fold
B1: Ab1070: conventional TCE containing the M37-H6L2 variant of the M37 clone (antibody)
heavy 1: EVQLVESGGGLVQPGGSLRLSCAASGFTFNTYAMNWVRQAPGKGLEWVARIRSKYNNYATYYADSVKGRFTISRDDSKSILYLQMNSLRAEDTAVYYCVRHGNFGNSYVSWFAYWGQGTLVTVSSGGGGSGGGGSGGGGSDIQVTQSPSSLSASVGDRVTITCRSSTGAVTTSNYANWVQQKPGKAFKGLIGGTNKLAPGVPSRFSGSLSGDDATLTISSLQPEDFATYYCALWYSNLWVFGQGTKLEIKGGGGS[human IgG1 Fc with changes left out]
heavy 2: EVQLVESGGGLVQPGGSLRLSCAASGFTFSNYWMNWVRQAPGKGLEWVAQIRVKSENFATHYADSVKGRFTISRDDSKSTVYLQMNSLRAEDTAVYYCTLYDGFSWGQGTLVTVSSASTKGPSVFPLAPSSKSTSGGTAALGCLVKDYFPEPVTVSWNSGALTSGVHTFPAVLQSSGLYSLSSVVTVPSSSLGTQTYICNVNHKPSNTKVDKKV[human IgG1 Fc with changes left out]
light: DIQMTQSPSSLSASVGDRVTITCSASSSVSSGNFHWYQQKPGKAPKLLIYRTSNLASGVPSRFSGSGSGTDYTLTISSLQPEDFATYYCQQWSGYPYTFGQGTKVEIKRTVAAPSVFIFPPSDEQLKSGTASVVCLLNNFYPREAKVQWKVDNALQSGNSQESVTEQDSKDSTYSLSSTLTLSKADYEKHKVYACEVTHQGLSSPVTKSFNRGEC
modifications: REGION 1..482: note = Ab1070 Knob HC; REGION 1..446: note = Ab1070 Hole HC; REGION 1..215: note = Ab1070 Hole LC
notes: conventional TCE containing the M37-H6L2 variant of the M37 clone
T-cell activation (CD69 upregulation) with AEPO [1]: induced activation of T-cells
killing of CEPO-HB2 line (CEPO-HB2 target cells; 67 hours): potently killed
killing of CEPO-L2A2 line (CEPO-L2A2 target cells): potently killed
